Source: the supplement of paper PMC8728848
The list shows a part of the results.

Experiments:
Test in all cases: glycan array binding signal (z-score within array); higher = stronger binding
Settings in all cases: glycan notation: IUPAC condensed, linker removed; mutation: H262T
Gal6S(b1-4)Glc = biological target: Gal6S(b1-4)Glc
Procedure, shortened: (§1)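 The binding signal is a Z-score computed within each array. Data were drawn from 3228 arrays in the Consortium for Functional Glycomics database, restricted to those with a known protein sequence. Scores were averaged over arrays of the same protein sequence at different concentrations or buffers, and over linkers, and negative values can be taken as non-binding.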

Gal6S(b1-4)Glc6S = biological target: Gal6S(b1-4)Glc6S
Procedure, shortened: as §1

Gal6S(b1-4)GlcNAc = biological target: Gal6S(b1-4)GlcNAc
Procedure, shortened: as §1

Gal6S(b1-4)GlcNAc6S = biological target: Gal6S(b1-4)GlcNAc6S
Procedure, shortened: as §1

GalNAc(a1-3)Gal = biological target: GalNAc(a1-3)Gal
Procedure, shortened: as §1

GalNAc(a1-3)GalNAc = biological target: GalNAc(a1-3)GalNAc
Procedure, shortened: as §1

[1] = biological target: GalNAc(a1-3)GalNAc(b1-3)Gal(a1-4)Gal(b1-4)Glc
Procedure, shortened: as §1

[2] = biological target: GalNAc(a1-3)GalNAc(b1-3)Gal(a1-4)Gal(b1-4)GlcNAc
Procedure, shortened: as §1

GalNAc(b1-3)Gal = biological target: GalNAc(b1-3)Gal
Procedure, shortened: as §1

[3] = biological target: GalNAc(b1-3)Gal(a1-4)Gal(b1-4)GlcNAc
Procedure, shortened: as §1

[4] = biological target: GalNAc(b1-3)Gal(a1-4)Gal(b1-4)GlcNAc(b1-3)Gal(b1-4)Glc
Procedure, shortened: as §1

[5] = biological target: GalNAc(b1-3)Gal(a1-6)Gal(b1-4)Glc
Procedure, shortened: as §1

GalNAc(b1-3)GalNAc = biological target: GalNAc(b1-3)GalNAc
Procedure, shortened: as §1

GalNAc(b1-3)GlcNAc = biological target: GalNAc(b1-3)GlcNAc
Procedure, shortened: as §1

GalNAc(b1-4)Gal(b1-4)Glc = biological target: GalNAc(b1-4)Gal(b1-4)Glc
Procedure, shortened: as §1

GalNAc(b1-4)GlcNAc = biological target: GalNAc(b1-4)GlcNAc
Procedure, shortened: as §1

[6] = biological target: GalNAc(b1-4)GlcNAc(b1-2)Man
Procedure, shortened: as §1

[7] = biological target: GalNAc(b1-4)GlcNAc(b1-2)Man(a1-3)[GalNAc(b1-4)GlcNAc(b1-2)Man(a1-6)]Man(b1-4)GlcNAc(b1-4)GlcNAc
Procedure, shortened: as §1

[8] = biological target: GalNAc(b1-4)GlcNAc(b1-3)GalNAc(b1-4)GlcNAc
Procedure, shortened: as §1

GalNAc(b1-4)GlcNAc6S = biological target: GalNAc(b1-4)GlcNAc6S
Procedure, shortened: as §1

GalNAc(b1-6)GalNAc = biological target: GalNAc(b1-6)GalNAc
Procedure, shortened: as §1

GalNAc3S(b1-4)GlcNAc = biological target: GalNAc3S(b1-4)GlcNAc
Procedure, shortened: as §1

GalNAc3S(b1-4)GlcNAc3S = biological target: GalNAc3S(b1-4)GlcNAc3S
Procedure, shortened: as §1

[9] = biological target: GalNAc3S(b1-4)[Fuc(a1-3)]GlcNAc
Procedure, shortened: as §1

GalNAc4S6S(b1-4)GlcNAc = biological target: GalNAc4S6S(b1-4)GlcNAc
Procedure, shortened: as §1

GalNAc6S(b1-4)GlcNAc = biological target: GalNAc6S(b1-4)GlcNAc
Procedure, shortened: as §1

Glc(a1-4)Glc = biological target: Glc(a1-4)Glc
Procedure, shortened: as §1

[10] = biological target: Glc(a1-4)Glc(a1-4)Glc(a1-4)Glc
Procedure, shortened: as §1

Glc(a1-6)Glc(a1-6)Glc = biological target: Glc(a1-6)Glc(a1-6)Glc
Procedure, shortened: as §1

[11] = biological target: Glc(a1-6)Glc(a1-6)Glc(a1-6)Glc
Procedure, shortened: as §1

Glc(b1-4)Glc = biological target: Glc(b1-4)Glc
Procedure, shortened: as §1

Glc(b1-6)Glc = biological target: Glc(b1-6)Glc
Procedure, shortened: as §1

GlcA(b1-3)Gal = biological target: GlcA(b1-3)Gal
Procedure, shortened: as §1

GlcA(b1-3)GlcNAc = biological target: GlcA(b1-3)GlcNAc
Procedure, shortened: as §1

GlcA(b1-6)Gal = biological target: GlcA(b1-6)Gal
Procedure, shortened: as §1

[12] = biological target: GlcA3S(b1-3)Gal(b1-4)GlcNAc(b1-2)Man
Procedure, shortened: as §1

[13] = biological target: GlcA3S(b1-3)Gal(b1-4)GlcNAc(b1-3)Gal(b1-4)Glc
Procedure, shortened: as §1

B1: MGL6A (Homo sapiens) (protein)
chain: MTRTYENFQYLENKVKVQGFKNGPLPLQSLLQRLCSGPCHLLLSLGLGLLLLVIICVVGFQNSKFQRDLVTLRTDFSNFTSNTVAEIQALTSQGSSLEETIASLKAEVEGFKQERQAVHSEMLLRVQQLVQDLKKLTCQVATLNNNGEEASTEGTCCPVNWVEHQDSCYWFSHSGMSWAEAEKYCQLKNAHLVVINSREEQNFVQKYLGSAYTWMGLSDPEGAWKWVDGTDYATGFQNWKPGQPDDWQGHGLGGGEDCAHFTPDGRWNDDVCQRPYHWVCEAGLGQTSQESH
glycan array binding signal (z-score) (Gal6S(b1-4)Glc): -0.173
glycan array binding signal (z-score) (Gal6S(b1-4)Glc6S): -0.173
glycan array binding signal (z-score) (Gal6S(b1-4)GlcNAc): -0.175
glycan array binding signal (z-score) (Gal6S(b1-4)GlcNAc6S): -0.175
glycan array binding signal (z-score) (GalNAc(a1-3)Gal): 1.07
glycan array binding signal (z-score) (GalNAc(a1-3)GalNAc): -0.169
glycan array binding signal (z-score) [1]: -0.167
glycan array binding signal (z-score) [2]: -0.173
glycan array binding signal (z-score) (GalNAc(b1-3)Gal): 2.79
glycan array binding signal (z-score) [3]: 0.263
glycan array binding signal (z-score) [4]: 0.461
glycan array binding signal (z-score) [5]: 2.76
glycan array binding signal (z-score) (GalNAc(b1-3)GalNAc): -0.161
glycan array binding signal (z-score) (GalNAc(b1-3)GlcNAc): 0.976
glycan array binding signal (z-score) (GalNAc(b1-4)Gal(b1-4)Glc): -0.171
glycan array binding signal (z-score) (GalNAc(b1-4)GlcNAc): 0.415
glycan array binding signal (z-score) [6]: 1.26
glycan array binding signal (z-score) [7]: 0.007
glycan array binding signal (z-score) [8]: 1.59
glycan array binding signal (z-score) (GalNAc(b1-4)GlcNAc6S): 0.632
glycan array binding signal (z-score) (GalNAc(b1-6)GalNAc): -0.172
glycan array binding signal (z-score) (GalNAc3S(b1-4)GlcNAc): -0.171
glycan array binding signal (z-score) (GalNAc3S(b1-4)GlcNAc3S): -0.171
glycan array binding signal (z-score) [9]: -0.169
glycan array binding signal (z-score) (GalNAc4S6S(b1-4)GlcNAc): -0.173
glycan array binding signal (z-score) (GalNAc6S(b1-4)GlcNAc): 0.267
glycan array binding signal (z-score) (Glc(a1-4)Glc): -0.17
glycan array binding signal (z-score) [10]: -0.176
glycan array binding signal (z-score) (Glc(a1-6)Glc(a1-6)Glc): -0.175
glycan array binding signal (z-score) [11]: -0.176
glycan array binding signal (z-score) (Glc(b1-4)Glc): -0.174
glycan array binding signal (z-score) (Glc(b1-6)Glc): -0.168
glycan array binding signal (z-score) (GlcA(b1-3)Gal): -0.17
glycan array binding signal (z-score) (GlcA(b1-3)GlcNAc): -0.174
glycan array binding signal (z-score) (GlcA(b1-6)Gal): -0.173
glycan array binding signal (z-score) [12]: -0.166
glycan array binding signal (z-score) [13]: -0.178
